The conditions of data set [1]: comparison with 1·19 and 1·20; cited from earlier work.
The nature of data set [2]: ITC binding of guests to host 1 (direct or competitive titration). The note with it: 20 mM sodium phosphate buffered H2O, pH 7.4, 25° C.; direct or competitive ITC per footnote.
For data set [3] the following is noted: taken from the literature; cited from earlier work.
Data set [4] has as its system Hep G2 cells. Kind of data set: AK (Toxilight) cell death assay, Hep G2. It counts as cell-based, human. To be noted: HepG2, 24 h incubation, up to a concentration of 1 mM. How it is done: (§1) To test the Cytotoxicity and Cell Viability of the above compounds we used two different assays: an MTS (CellTiter 96 AQueous Kit®) assay that measures cellular metabolism, and the AK (Toxilight® BioAssay Kit) assay that measures cell death through release of the cytosolic enzyme adenylate kinase into the supernatant. Both assays were performed with two different cell lines. HEK293 and Hep G2 cells, are frequently used in drug toxicity studies. HEK293, a human kidney cell line, is used to evaluate the effect of the drug on the renal system and Hep G2, a human hepatocyte cell line, is used to assess the response of liver cells where drugs are metabolized. The MTS and AK assays for both cell lines were conducted after 24 h of incubation with the compounds at concentrations of 0.01 mM, 0.03 mM, 0.1 mM, 0.3 mM, and 1 mM. Eight technical replicates were designated for untreated cells and four technical replicates were designated for the cells treated with each compound and staurosporine (apoptosis inducer).
(§2) The collected absorbance and relative luminescence data were normalized to percent cell viability (MTS) and percent cell death (AK) using equations 1 and 2:
(§3) % cell death=(RLU samples/Average RLU Distilled water)×100 Eq. 2: […]

Data set [5] concerns Hep G2 cells. The data set is described as follows: MTS (CellTiter 96 AQueous) cell viability assay, Hep G2. To be noted: HepG2, 24 h incubation, up to a concentration of 0.3 mM. It counts as cell-based, human. The protocol:
as §1, §2
(§4) % cell viability=(Abs sample/Average Abs UT)×100 Eq. 1: […]

Data set [6] concerns HEK293 cells. The data set is described as follows: AK (Toxilight) cell death assay, HEK293. The note with it: HEK293, 24 h incubation, up to a concentration of 1 mM. It counts as cell-based, human. The protocol: as §1, §2, §3
Data set [7] relates to HEK293 cells. Kind of data set: MTS (CellTiter 96 AQueous) cell viability assay, HEK293. The note with it: HEK293, 24 h incubation, up to a concentration of 0.3 mM. It counts as cell-based, human. The protocol:
as §1, §2, §4

The nature of data set [8]: Aqueous solubility. The note with it: host 1, water.
Data set [9] concerns the target hERG ion channel (Homo sapiens, UniProt Q12809). The data set is described as follows: hERG ion channel inhibition, QPatch HTX patch clamp in HEK-293. In general terms: The hERG channel carries a current that helps repolarise heart muscle cells.

Where “and” joins values, the source holds several entries; their conditions need not be identical. Equal entries are not always repeated. Some results are limits rather than exact numbers.

hERG ion channel, sequence (Q12809 whole entry): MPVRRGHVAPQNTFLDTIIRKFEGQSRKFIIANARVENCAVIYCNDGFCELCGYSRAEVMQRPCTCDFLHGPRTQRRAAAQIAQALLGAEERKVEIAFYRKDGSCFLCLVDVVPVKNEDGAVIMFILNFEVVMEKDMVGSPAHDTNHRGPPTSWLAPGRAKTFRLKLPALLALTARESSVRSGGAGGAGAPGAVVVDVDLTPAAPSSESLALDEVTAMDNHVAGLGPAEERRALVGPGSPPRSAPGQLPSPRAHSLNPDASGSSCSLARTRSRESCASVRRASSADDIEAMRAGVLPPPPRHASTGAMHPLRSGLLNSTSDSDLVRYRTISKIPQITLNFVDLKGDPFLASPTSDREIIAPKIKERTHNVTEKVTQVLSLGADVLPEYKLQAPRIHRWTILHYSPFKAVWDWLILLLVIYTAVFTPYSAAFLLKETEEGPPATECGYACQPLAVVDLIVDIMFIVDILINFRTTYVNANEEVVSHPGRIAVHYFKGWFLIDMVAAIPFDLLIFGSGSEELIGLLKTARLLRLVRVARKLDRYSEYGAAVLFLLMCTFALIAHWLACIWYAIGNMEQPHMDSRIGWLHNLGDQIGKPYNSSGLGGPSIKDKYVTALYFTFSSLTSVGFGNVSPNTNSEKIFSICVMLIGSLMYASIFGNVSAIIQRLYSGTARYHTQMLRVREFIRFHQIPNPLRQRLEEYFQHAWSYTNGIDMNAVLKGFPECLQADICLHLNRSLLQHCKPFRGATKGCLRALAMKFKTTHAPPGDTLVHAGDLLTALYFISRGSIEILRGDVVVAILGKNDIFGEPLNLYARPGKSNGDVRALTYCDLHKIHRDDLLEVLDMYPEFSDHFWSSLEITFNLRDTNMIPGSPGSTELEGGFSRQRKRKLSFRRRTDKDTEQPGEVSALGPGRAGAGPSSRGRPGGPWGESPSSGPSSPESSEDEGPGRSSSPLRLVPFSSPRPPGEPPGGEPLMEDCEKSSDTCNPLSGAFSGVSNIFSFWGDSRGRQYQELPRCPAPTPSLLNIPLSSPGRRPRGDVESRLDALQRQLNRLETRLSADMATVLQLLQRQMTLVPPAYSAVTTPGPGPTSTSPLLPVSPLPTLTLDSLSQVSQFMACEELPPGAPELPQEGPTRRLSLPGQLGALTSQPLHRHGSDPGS

As to `C=CC[N+]1([C@H]2C[C@H]3[C@@H]4CC[C@H]5C[C@H](O)[C@@H](N6CCOCC6)C[C@]5(C)[C@H]4CC[C@]3(C)[C@H]2OC(C)=O)CCCC1` [guest 19, rocuronium], the “Affinity (Ka) of M2·guest complex” value in data set [1] is 3.4e+09 M⁻¹.

Consider `CC(=O)O[C@H]1C[C@@H]2CC[C@@H]3[C@H](CC[C@@]4(C)[C@H]3C[C@H]([N+]3(C)CCCCC3)[C@@H]4OC(C)=O)[C@@]2(C)C[C@@H]1N1CCCCC1` [guest 20, vecuronium], for which the “Affinity (Ka) of M2·guest complex” value in data set [1] was 1.6e+09 M⁻¹.

With `COc1ccc(C[C@@H]2c3cc(OC)c(OC)cc3CC[N@+]2(C)CCC(=O)OCCCCCOC(=O)CC[N@@+]2(C)CCc3cc(OC)c(OC)cc3[C@H]2Cc2ccc(OC)c(OC)c2)cc1OC` [guest 21, cisatracurium], the “Ka of host·guest complex of 1” value in [2] turned out to be 532000 M⁻¹. Also, the “Ka of host·guest complex of M1” value in data set [3] was 970000 M⁻¹.

As usually defined, the IC50 is the concentration that inhibits the measured activity by half. For the molecule `C[C@]12N3Cc4c(OS(=O)(=O)[O-])ccc(OS(=O)(=O)[O-])c4CN1C(=O)N1CN4C(=O)N5CN6C(=O)N7CN8C(=O)N9Cc%10c(OS(=O)(=O)[O-])ccc(OS(=O)(=O)[O-])c%10CN%10C(=O)N(CN%11C(=O)N(CN%12C(=O)N(CN(C3=O)[C@]12C)[C@@H]4[C@H]%125)[C@@H]6[C@H]%117)[C@]8(C)[C@@]9%10C.[Na+].[Na+].[Na+].[Na+]` [host 1], the “Cytotoxicity (cell death)” value in data set [4] and in data set [6] was “low cytotoxicity” each time. Also, the “Cell tolerance (cell viability)” value in [5] and in data set [7] was “high cell tolerance” each time. For the same molecule, the Solubility in water in [8] was > 40 mM and 40 mM. The “hERG ion channel inhibition (in words)” value in data set [9] (0.008 μM to 25 μM, listed as M0) is recorded as “does not inhibit the hERG channel”. In addition, the 50% inhibitory concentration (IC50) in data set [9] (read-out: hERG IC50, six concentrations 0.008 μM to 25 μM, HEK-293 expressing hERG) was greater than 25 µM.

(Values after patent US20230203052A1, “ACYCLIC CUCURBITURILS, METHODS OF MAKING SAME, AND USES THEREOF” (University of Maryland, College Park, priority 2020, published 2023).)
